# From PubChem BioAssay (Tox21)
# Where “and” joins values, the source holds several entries; their conditions need not be identical. Equal values may be shown once. This list was built around the results that the source calls inconclusive (neither active nor inactive); the mix of calls is not that of the screen. For some assays here: A potency beside an inconclusive call is a rough fit, not a confirmed value. Where a structure was tested more than once in an assay, its records may differ in their call. Calls of active or inactive are those of the source. Unless noted, calls follow the shape of the dose curve; as a rule, active = well fitted curve in the direction sought with a large enough effect in the repeat runs; inconclusive = weak or mixed curves; inactive = no such curve, though single readings can be large; an effect the other way counts as inactive or inconclusive.
# What was measured:
# [1] = qHTS assay to identify small molecule antagonists of the thyroid receptor (TR) signaling pathway (AID 743065); also: nearly all actives have a fitted effect of over 55% in size; as to activity, negative = inhibition: % is scaled to controls: 0 for no effect and ±100 for the full control effect
# Method in brief: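 Antagonism measured as loss of luciferase signal in GH3 cells stably carrying a TRE-luciferase reporter, co-treated with compound and T3 (1 nM final) for 23.5 h at 37 C. Viability was read in the same well by CellTiter-Fluor.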
# [2] = qHTS assay to identify small molecule antagonists of the estrogen receptor alpha (ER-alpha) signaling pathway - cell viability counter screen (AID 743074; calls by dose curve;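 also: HEK293 cells carrying ER-alpha-UAS-bla reporter stimulated with 17beta-estradiol; nearly all actives have a fitted effect of over 45% in size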)
# [3] = qHTS assay to identify small molecule antagonists of the estrogen receptor alpha (ER-alpha) signaling pathway using the BG1 cell line - cell viability counter screen (AID 743081); details: BG1Luc4E2 viability, CellTiter-Fluor, 22 h; activity change, negative = cytotoxicity: at 70.3 µM (top of the series);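 also: compound given together with 17beta-estradiol as the ER stimulus; nearly all actives have a fitted effect of over 45% in size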; as to activity change, negative = cytotoxicity: % is scaled to controls: 0 for no effect and ±100 for the full control effect
# [4] = target: Estrogen receptor (Homo sapiens) (UniProt P03372); assay: qHTS assay to identify small molecule agonists of the estrogen receptor alpha (ER-alpha) signaling pathway (AID 743075; calls by dose curve)
# Chain of UniProt P03372 (P03372 whole entry, looked up): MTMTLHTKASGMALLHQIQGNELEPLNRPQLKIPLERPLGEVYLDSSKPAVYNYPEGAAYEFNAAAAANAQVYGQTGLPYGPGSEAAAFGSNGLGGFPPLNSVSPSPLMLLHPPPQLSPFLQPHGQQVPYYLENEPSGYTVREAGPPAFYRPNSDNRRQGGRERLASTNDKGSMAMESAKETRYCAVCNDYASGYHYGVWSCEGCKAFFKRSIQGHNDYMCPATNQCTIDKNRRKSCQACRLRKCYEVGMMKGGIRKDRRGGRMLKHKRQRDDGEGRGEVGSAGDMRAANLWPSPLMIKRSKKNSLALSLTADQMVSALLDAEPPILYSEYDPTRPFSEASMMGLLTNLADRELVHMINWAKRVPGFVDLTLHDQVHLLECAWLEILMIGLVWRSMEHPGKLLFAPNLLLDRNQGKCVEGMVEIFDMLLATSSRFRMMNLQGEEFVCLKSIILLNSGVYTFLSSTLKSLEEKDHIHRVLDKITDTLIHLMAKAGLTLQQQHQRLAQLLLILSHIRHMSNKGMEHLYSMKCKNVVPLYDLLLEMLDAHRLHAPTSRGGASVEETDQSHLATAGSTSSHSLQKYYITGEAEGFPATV
# [5] = target: Estrogen receptor (Homo sapiens) (UniProt P03372); assay: qHTS assay to identify small molecule agonists of the estrogen receptor alpha (ER-alpha) signaling pathway using the BG1 cell line (AID 743079); details: BG1Luc4E2 cells, ERE-luciferase agonist, 22 h; activation: at 70.3 µM (top of the series) unless noted; also: nearly all actives have a fitted effect of over 20% in size; as to activation: % is scaled to controls: 0 for no effect and ±100 for the full control effect
# Aromatase (Homo sapiens) = Aromatase (Homo sapiens) (UniProt P11511); assay: qHTS assay to identify aromatase inhibitors (AID 743083); also: nearly all actives have a fitted effect of over 55% in size; as to activity, negative = inhibition: % is scaled to controls: 0 for no effect and ±100 for the full control effect
# Chain of UniProt P11511 (P11511 whole entry, looked up): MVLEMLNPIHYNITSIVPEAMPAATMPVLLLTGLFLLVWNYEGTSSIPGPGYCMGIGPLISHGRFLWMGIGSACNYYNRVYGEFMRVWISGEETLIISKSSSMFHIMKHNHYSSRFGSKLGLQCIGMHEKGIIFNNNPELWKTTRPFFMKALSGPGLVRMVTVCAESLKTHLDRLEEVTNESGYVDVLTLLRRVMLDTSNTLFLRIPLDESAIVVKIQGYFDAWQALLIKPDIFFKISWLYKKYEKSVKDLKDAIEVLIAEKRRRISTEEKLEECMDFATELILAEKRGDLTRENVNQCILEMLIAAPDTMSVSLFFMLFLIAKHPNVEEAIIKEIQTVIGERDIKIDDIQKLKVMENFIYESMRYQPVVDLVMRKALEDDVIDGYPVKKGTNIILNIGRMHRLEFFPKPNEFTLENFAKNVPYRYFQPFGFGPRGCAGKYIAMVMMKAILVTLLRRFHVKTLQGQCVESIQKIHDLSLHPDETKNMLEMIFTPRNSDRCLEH
# [6] = qHTS assay to identify aromatase inhibitors - cell viability counter screen (AID 743084); details: MCF-7 aro ERE viability, CellTiter-Fluor, 24 h; activity change, negative = cytotoxicity: at 70.3 µM (top of the series);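 also: cells stimulated with testosterone during compound exposure; nearly all actives have a fitted effect of over 55% in size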
# [7] = qHTS assay to identify small molecule antagonists of the estrogen receptor alpha (ER-alpha) signaling pathway using the BG1 cell line (AID 743080; calls by dose curve;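 also: BG1 cells stimulated with 17beta-estradiol alongside compound; nearly all actives have a fitted effect of over 25% in size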); details: BG1Luc4E2 ERE-luciferase antagonist mode, luminescence; activity change, negative = inhibition: at 70.3 µM (top of the series) unless noted
# Method in brief: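 Readout is ONE-Glo luminescence, taken 30 min at room temperature after reagent addition, preceded by a CellTiter-Fluor viability read; BG1-Luc-4E2 cells had received compound and 17beta-estradiol for 21.5 h at 37 C.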
# [8] = test system: thyroid hormone receptor (rat, GH3 cells); assay: qHTS assay to identify small molecule agonists of the thyroid receptor (TR) signaling pathway (AID 743066; calls by dose curve); details: GH3.TRE-Luc cells, TR agonist luciferase, 24 h
# [9] = target: Estrogen receptor (Homo sapiens) (UniProt P03372); assay: qHTS assay to identify small molecule antagonists of the estrogen receptor alpha (ER-alpha) signaling pathway (AID 743069; active = well fitted curve in the direction sought with a large enough effect in the signal ratio in the repeat runs, not every such curve was filed as active; inconclusive = weak or mixed curves, or effect the other way; inactive = no such curve, though single readings can be large or run the other way; the % refers to the signal ratio); details: HEK293 ER-alpha-UAS-bla, beta-lactamase ratio, antagonist mode; activity, negative = inhibition: at 69.4 µM (top of the series) unless noted
# Method in brief: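 Compound effects are measured against 17beta-estradiol stimulation in HEK293 cells with a UAS-controlled beta-lactamase reporter for ER-alpha. Exposure lasts 18 hr at 37C; LiveBLAzer B/G FRET substrate follows for 2 hr at room temperature.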
# [10] = activation: at 83.9 µM (top of the series) unless noted
# Potency is read from the fitted curve at half-maximal effect; tags tell the direction and shape of the fitted curve or compound fluorescence and quenching.
structure (smiles),measurement,setting,value
CCC(=O)OCc1ccccc1,Potency,[1],inactive
same,Potency,[2],inactive
same,Potency,[3],inactive
OC[C@@H](O)[C@@H](O)[C@H](O)[C@H](O)CO,Potency,[1],inactive
same,Potency,[4],"inconclusive: 62.2 µM [activator, partial curve, poor fit]"
same,activation,[5],inconclusive: 11% [phenotype inactive] [at 95 µM]
C=C(C)[C@@H]1CCC2=CCC[C@@H](C)[C@]2(C)C1,Potency,[1],"inconclusive: 68.6 µM [inhibitor, single point]"
same,activation,[5],inconclusive: 24% [phenotype inactive]
same,Potency,Aromatase (Homo sapiens),"inconclusive: 68.6 µM [inhibitor, single point]"
NCCNCCO,Potency,[1],inactive
same,Potency,[5],inactive
Cc1[nH]nc2c1N=C(c1ccccc1Cl)c1cc([N+](=O)[O-])ccc1N2,Potency,[1],active: 19.3 µM
same,Potency,[2],active: 6.92 µM
same,Potency,[3],active: 54.5 µM
O=[N+]([O-])c1ccc(Nc2ccc(Nc3ccccc3)c(S(=O)(=O)O)c2)c([N+](=O)[O-])c1,Potency,[1],"inconclusive: 61.1 µM [inhibitor, partial curve]"
same,Potency,[3],"inconclusive: 68.6 µM [cytotoxic, single point]"
same,Potency,[6],"inconclusive: 43.3 µM [cytotoxic, partial curve]"
CCCCCCOc1ccccc1C(N)=O,Potency,[1],"inconclusive: 29.8 µM [inhibitor, partial curve]"
same,Potency,[5],"inconclusive: 26.6 µM [inhibitor, partial curve]"
same,Potency,[7],active: 33.5 µM
CCCCCCCCC(CCCCCC)C(=O)O (centres undefined),Potency,[1],"inconclusive: 24.3 µM [inhibitor, single point]"
same,Potency,Aromatase (Homo sapiens),"inconclusive: 54.5 µM [inhibitor, partial curve]"
same,Potency,[6],"inconclusive: 61.1 µM [cytotoxic, single point]"
CC[N+](CC)(CCNC(=O)C(=O)NCC[N+](CC)(CC)Cc1ccccc1Cl)Cc1ccccc1Cl,Potency,[1],inactive
same,activation,[5],inconclusive: 1.49% [phenotype inactive]
Cc1c(C)c2c(c(C)c1OC(=O)CCC(=O)O)CC[C@@](C)(CCC[C@H](C)CCC[C@H](C)CCCC(C)C)O2,Potency,[1],"inconclusive: 33.5 µM [inhibitor, single point]"
same,Potency,Aromatase (Homo sapiens),inactive
Cc1cc(O)ccc1O,Potency,[1],"inconclusive: 27.6 µM [inhibitor, single point]"
same,Potency,Aromatase (Homo sapiens),"inconclusive: 98 µM [inhibitor, single point]"
same,Potency,[6],"inconclusive: 69.4 µM [cytotoxic, single point]"
Cc1ccc(N/N=c2\c(=O)cc/c(=N\Nc3ccc(S(=O)(=O)O)cc3)c2=O)c(C)c1,Potency,[1],"inconclusive: 54.5 µM [inhibitor, single point]"
same,Potency,[5],inactive
same,Potency,[3],active: 54.5 µM
same,Potency,[6],active: 27.3 µM
CC(C)(C)C1=CC(=O)C=C(C(C)(C)C)C1=O,Potency,[1],"inconclusive: 30.6 µM [inhibitor, single point]"
same,Potency,[2],"inconclusive: 38.9 µM [rising, partial curve, poor fit]"
same,Potency,Aromatase (Homo sapiens),active: 34.4 µM
same,Potency,[6],active: 34.4 µM
CCCCNc1c(C(=O)OCC)c(C)nc2c1cnn2CC,Potency,[1],"inconclusive: 33.5 µM [inhibitor, single point]"
same,Potency,[2],inactive
same,Potency,[6],inactive
CCCC1C(CC)=CC(CC)=CN1c1ccccc1 (centres undefined),Potency,[1],"inconclusive: 68.6 µM [inhibitor, single point]"
same,Potency,[3],"inconclusive: 68.6 µM [cytotoxic, partial curve, poor fit]"
CCOC(=O)c1ccc(C#Cc2ccc3c(c2)C(C)(C)CCS3)nc1,Potency,[1],inactive
same,Potency,Aromatase (Homo sapiens),"inconclusive: 0.0473 µM [inhibitor, full curve]"
S=c1[nH]c2ccccc2s1,Potency,[1],inconclusive: 54.5 µM [inhibitor]
same,Potency,[2],active: 6.16 µM
same,Potency,[3],"inconclusive: 8.41 µM [rising, partial curve, poor fit] and inconclusive: 27.3 µM [rising, partial curve, poor fit]"
CCCCCCCCOc1ccc(C(=O)O)cc1,Potency,[1],"inconclusive: 27 µM [inhibitor, single point]"
same,Potency,[2],inactive
same,Potency,Aromatase (Homo sapiens),"inconclusive: 0.48 µM [inhibitor, partial curve]"
OCCOCCN1CCN(C(c2ccccc2)c2ccc(Cl)cc2)CC1 (centres undefined),Potency,[1],active: 23.7 µM and active: 47.9 µM
same,Potency,[3],"inconclusive: 60.3 µM [cytotoxic, partial curve]"
same,Potency,[6],"inconclusive: 47.9 µM [cytotoxic, partial curve]"
CNC(=O)c1ccccc1Sc1ccc2c(/C=C/c3ccccn3)n[nH]c2c1,Potency,[1],"inconclusive: 0.944 µM [inhibitor, full curve]"
same,Potency,[2],"inconclusive: 13.4 µM [rising, full curve]"
same,Potency,[3],"inconclusive: 5.96 µM [cytotoxic, full curve]"
NCCc1ccc(O)c(O)c1,Potency,[1],inconclusive: 33.5 µM [inhibitor]
same,Potency,[5],"inconclusive: 29.8 µM [inhibitor, partial curve] and inconclusive: 34.5 µM [inhibitor, partial curve]"
same,Potency,[7],"inconclusive: 54.6 µM [falling, partial curve]"
same,"activity change, negative = inhibition",[7],inconclusive: -10.8%
same,Potency,[3],active: 54.6 µM
same,Potency,Aromatase (Homo sapiens),"inconclusive: 27.4 µM [inhibitor, partial curve]"
same,Potency,[6],"inconclusive: 33.5 µM [cytotoxic, single point] and active: 27.4 µM"
O=C(O)Cc1ccc(OCCNC[C@H](O)c2ccccc2)cc1,Potency,[1],inactive
same,Potency,[7],inactive
CCCCCC(CO)CCC (centres undefined),Potency,[1],inactive
same,Potency,[3],"inconclusive: 61.1 µM [rising, partial curve, poor fit]"
CCCCC(CC)CN (centres undefined),Potency,[1],"inconclusive: 69.8 µM [inhibitor, single point]"
same,Potency,[2],"inconclusive: 44.5 µM [cytotoxic, partial curve]"
same,Potency,Aromatase (Homo sapiens),"inconclusive: 69.8 µM [inhibitor, single point]"
CCOc1ccc2[nH]cc(C(=O)NCc3ccccc3)c(=O)c2n1,Potency,[1],"inconclusive: 54.5 µM [inhibitor, partial curve, poor fit]"
same,Potency,[5],"inconclusive: 68.6 µM [inhibitor, single point]"
same,Potency,[7],"inconclusive: 61.1 µM [falling, partial curve]"
c1cc(C(c2ccc(OCC3CO3)cc2)C(c2ccc(OCC3CO3)cc2)c2ccc(OCC3CO3)cc2)ccc1OCC1CO1 (centres undefined),Potency,[1],active: 20.1 µM and active: 21.7 µM
same,Potency,[4],"inconclusive: 28.6 µM [fluorescent, partial curve] and inactive"
same,Potency,[3],inactive
same,Potency,Aromatase (Homo sapiens),"inconclusive: 89.6 µM [inhibitor, single point]"
same,Potency,[6],"inconclusive: 71.2 µM [cytotoxic, partial curve]"
CN(C)CCOc1ccccc1Cc1ccccc1,Potency,[1],"inconclusive: 18.8 µM [inhibitor, partial curve]"
same,Potency,[3],active: 2.37 µM
O=C(O)CCc1nc(-c2ccccc2)c(-c2ccccc2)o1,Potency,[1],"inconclusive: 33.5 µM [inhibitor, single point]"
same,activation,[5],inconclusive: 8.38% [phenotype inactive]
same,Potency,[3],inactive
Cc1cc(C)cc(N)c1,Potency,[1],inactive
same,Potency,[7],inactive
CCc1ccc(C(c2ccc(CC)cc2)C(Cl)Cl)cc1,Potency,[1],"inconclusive: 38.6 µM [inhibitor, partial curve]"
same,Potency,[5],"inconclusive: 69.7 µM [inhibitor] and inconclusive: 68.6 µM [inhibitor, partial curve, poor fit]"
C/C=C/C=C/COC(=O)C(C)C,Potency,[1],"inconclusive: 48.6 µM [inhibitor, single point]"
same,Potency,[6],"inconclusive: 68.6 µM [cytotoxic, single point]"
C=CCCC=C,Potency,[1],inactive
same,Potency,[5],inactive
COc1ccccc1N1CCN(CCCCNC(=O)c2ccc(-c3ccc(C(C)=O)cc3)cc2)CC1,Potency,[1],"inconclusive: 2.37 µM [inhibitor, partial curve, poor fit]"
same,Potency,[7],"inconclusive: 11.9 µM [falling, full curve]"
same,Potency,[3],"inconclusive: 9.44 µM [cytotoxic, full curve]"
CC(=O)C(C)=O,Potency,[1],inactive
same,Potency,[6],inactive
CCN(CCN)c1cccc(C)c1,Potency,[1],"inconclusive: 69.2 µM [inhibitor, single point]"
same,Potency,[2],"inconclusive: 54.9 µM [cytotoxic, single point]"
same,Potency,[3],"inconclusive: 11 µM [cytotoxic, partial curve]"
CN(C)c1ccc(N=NS(=O)(=O)O)cc1,Potency,[1],inactive
same,Potency,[2],"inconclusive: 2.59 µM [rising, full curve]"
same,Potency,Aromatase (Homo sapiens),"inconclusive: 27.3 µM [inhibitor, full curve]"
same,Potency,[6],"inconclusive: 48.6 µM [cytotoxic, partial curve, poor fit]"
CN(C/C=C/c1ccccc1)Cc1cccc2ccccc12,Potency,[1],"inconclusive: 33.5 µM [inhibitor, single point]"
same,Potency,[5],inactive
CCCCCCc1ccc(O)cc1O,activation,[8]; [10],inconclusive: -8.47% [phenotype inactive]
same,activation,[8]; at 83.9 µM (top of the series),inactive: -1.16% and inactive: -8.88%
same,Potency,[2],"inconclusive: 43.8 µM [cytotoxic, partial curve, poor fit]"
same,Potency,Aromatase (Homo sapiens),"inconclusive: 54.6 µM [inhibitor, partial curve]"
same,Potency,[6],"inconclusive: 23.7 µM [cytotoxic, partial curve] and inconclusive: 61.3 µM [cytotoxic, single point] and inconclusive: 68.6 µM [cytotoxic, single point]"
CCCCCCCC[P+](CCCCCCCC)(CCCCCCCC)CCCCCCCC,Potency,[8]; [10],"inconclusive: 1.71 µM [inhibitor, partial curve, poor fit]"
same,Potency,[9],active: 21.7 µM [cytotoxic]
same,Potency,[2],active: 15.4 µM
same,Potency,[4],"inconclusive: 13.7 µM [cytotoxic, full curve]"
same,Potency,[5],"inconclusive: 1.53 µM [inhibitor, full curve]"
same,Potency,[7],active: 1.71 µM
same,Potency,[3],active: 8.58 µM
same,Potency,Aromatase (Homo sapiens),active: 1.53 µM
